Values marked as one replicate rest on one cluster of the flow cell; about a third of the high ones do not repeat.
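Also: ATP exposure 15 min at 22 °C before imaging.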

The data set deals with ATP. The experiment in a line: switch fluorescence ratio, 500 uM ATP over buffer (Cy3 cluster intensity, sum of 5 cycles each) (fold (ratio)); higher = stronger signal-on switching upon ATP binding; sequences stand for … in TCGTCGGCAGCGTCAGATGTGTATAAGAGACAGTTTTTTTTTTTTTTTTTTTTTTTTT…TC. The settings on record: aptamer strand: ATP DNA aptamer (quencher-CACCTGGGGGAGTATTGCGGAGGAAGG + anchor), 100 nM annealed; ATP concentration: 500 uM; one replicate. Summed up:
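Cy3-labelled switching-strand clusters on a modified Illumina MiSeq flow-cell were annealed to 100 nM quencher-labelled ATP aptamer and imaged first in selection buffer, then after 15 min with 500 uM ATP at 22 °C. NaOH stripping and re-annealing separated each of five buffer/ATP cycles, and clusters outside 100-1000 RFU were excluded. The fluorescence ratio sums target-cycle Cy3 intensity over buffer-cycle Cy3 intensity per cluster and averages it per switch-domain sequence.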
As for CACTTCCTTG, the switch fluorescence ratio amounted to 1.19. On to AGGCTAGGTG, for which the switch fluorescence ratio was found to be 1.42. For CGGATAAGTC the value was 0.986; for AACGTGACTC, 1.42. For AAAATAGCCC the value was 1.03. For TTGGTTCAGA the value was 1.03.

AGGGCAGCAC: the switch fluorescence ratio was determined as 0.979. Regarding ATATTCCGAG, the switch fluorescence ratio was found to be 1.16. On to ACCGTTGGAG, for which the switch fluorescence ratio is 0.993. CTATTGGGTA: the switch fluorescence ratio was 1.04.

For the sequence CCACATTCTT, the switch fluorescence ratio came to 1.02.

For CCCACGGGTA, the switch fluorescence ratio came out at 1.68. On to GATCTACCAT, for which the switch fluorescence ratio amounted to 1.06. On to CACGGATCGG, for which the switch fluorescence ratio is 0.994. On to CAGAATTAAT, for which the switch fluorescence ratio came out at 1.01.

On to TGGTACTCTG, for which the switch fluorescence ratio amounted to 1.01. For GGAGATGGGC the value was 0.981; for CAACAGTTGG, 1. Turning to AGCCGATTTG, the switch fluorescence ratio was found to be 1.04. For ATCACTCTCC the value was 1.14; for GACCGCTTTG, 1.05; for ATGAAACTCA, 0.998.

On to CCATGTGGGA, for which the switch fluorescence ratio was found to be 0.964. For ACGGACGATT the value was 1.32; for CAAAGCAGGG, 1.1. For GCGCGTAATC, the switch fluorescence ratio worked out at 1. For AGCGCATTTC the value was 2.13. Turning to CTTCTACTGG, the switch fluorescence ratio is 1.03. For ATGCGATACG the value was 1.47; for GCTCTATTGC, 0.993. On to TTACAAGTCT, for which the switch fluorescence ratio worked out at 0.977. As to CGCTCTCTCT, the switch fluorescence ratio was found to be 1.06. For GCCTTGCAAT the value was 1.19. Consider TGTATTCGG, for which the switch fluorescence ratio is 0.994. For TCACAAGGAG the value was 0.971; for CTTTTCGGAT, 0.997; for GTCTGGATGC, 0.983. For TGATTGACT the value was 0.984; for ATAAATGCC, 0.971.

Take CGTTAAAACG: the switch fluorescence ratio is 1.01. For GAGGCTGCCT the value was 1.03; for TCATCTGGG, 1.03. Consider TTACCTTGTC, for which the switch fluorescence ratio was 1.13.

As for TTAAAGAGGT, the switch fluorescence ratio amounted to 0.963. For TGCATTTTA, the switch fluorescence ratio turned out to be 1.04. Take CACAGTCCGA: the switch fluorescence ratio turned out to be 1.01.

Regarding TACGTAAG, the switch fluorescence ratio came to 1.11. Turning to TGTCCAGGGT, the switch fluorescence ratio came out at 1.57. Take GCACCCAAGA: the switch fluorescence ratio is 1.07. On to CTGCGCTGGG, for which the switch fluorescence ratio stood at 1.15. For AACTGTATGT the value was 1.07; for AGGGTCTTCA, 0.983; for CGCTTCTCAG, 1.03. Consider TTCCGTAATT, for which the switch fluorescence ratio was 2.39. For ATAGAGGGTT the value was 0.982. With GTTGTAATGA, the switch fluorescence ratio was 0.953.

For the sequence TATGGGACTA, the switch fluorescence ratio is 1.01. For the sequence GTGAGGAG, the switch fluorescence ratio was 0.918. TTAGGACGG: the switch fluorescence ratio amounted to 1.07.

GGGGAATAAA: the switch fluorescence ratio was 0.959. For TAAAGCCCGG the value was 1.01. For TCACGTCAGG the value was 1.06; for CAGCGGACTG, 0.953.

As to AAACGGTAGG, the switch fluorescence ratio was determined as 1.02.

Take GCGTATTAAT: the switch fluorescence ratio stood at 1.02.

As for CGGAAGCTCA, the switch fluorescence ratio stood at 1.11. GTTTATTTGT: the switch fluorescence ratio was 1. Consider TGGGCTGCGC, for which the switch fluorescence ratio amounted to 0.981. For TCCTTGACGT the value was 1.02. For TTGAATGTCG the value was 0.92; for GCAAATTTCG, 1.04. As for GCCTACGTAG, the switch fluorescence ratio worked out at 0.988.

As to GAGACCTTT, the switch fluorescence ratio is 1.07. For TAGCAGGTG the value was 3.1; for ACATAGAGAC, 1.02. As for AATAGGATAT, the switch fluorescence ratio is 1.01. Regarding CGAGTGATGC, the switch fluorescence ratio was 1.88.

Consider CCTCGGATTT, for which the switch fluorescence ratio was found to be 1.08. On to ATTTAATCAG, for which the switch fluorescence ratio is 1.03.

In the case of GCGGACAGGG, the switch fluorescence ratio was 1.01. For AGTATGCAGC the value was 0.984.

On to CTGCTGTTTT, for which the switch fluorescence ratio was found to be 0.968.

As to TTGTTCGGGC, the switch fluorescence ratio was 1.05. For GGGACATGCT the value was 0.982; for CGTTCTCAGT, 0.917. For TCTCGGACAA the value was 1.67; for GACTGTTGGC, 1.01; for GGGCGCGAGT, 1.03. For TGAGTACCTT the value was 1.09. On to AGTGCACAAT, for which the switch fluorescence ratio came out at 0.981. For ACGTCTCTCA the value was 1.08; for GGTATTCCCA, 1.01; for TGTTGGTAG, 0.971. Consider GCCTCATAAC, for which the switch fluorescence ratio was 1.08.

Take TCAATCGCCG: the switch fluorescence ratio is 1.01. For CCCCTGTGGC the value was 1.17. For GAAGGCGAAC the value was 1.19; for ATCCGGGCAG, 1. For TTTAGCGTTC the value was 0.982; for TTCGTTTTCA, 0.982. Regarding ATTATTTTCT, the switch fluorescence ratio was determined as 1.05. For TTTAACAGTC the value was 1.04.

For the sequence TCCCAGGCGT, the switch fluorescence ratio was 1.03. For CCGCTGCTTC the value was 4.51. As for TTACTTGTCA, the switch fluorescence ratio worked out at 0.977. AGAGGCTAGC: the switch fluorescence ratio worked out at 0.899. For AGCTGGGGT the value was 1.05. As for ATCCTTTTAC, the switch fluorescence ratio turned out to be 1.06. For TCCGGTACCG the value was 1.01; for ACGTCGTCCA, 1.03.

Take CGTTGGGACT: the switch fluorescence ratio stood at 1. For AAGTAGCCAA the value was 0.948.

Consider TGGACGAAAT, for which the switch fluorescence ratio is 1.08.

Consider GTCAGTTGGG, for which the switch fluorescence ratio amounted to 0.974. On to AACAAAGGGC, for which the switch fluorescence ratio stood at 0.969.

In the case of GGCTAAATGA, the switch fluorescence ratio is 0.975. For the sequence TCATGAAACG, the switch fluorescence ratio turned out to be 0.999.

As to CGTTTCGCGC, the switch fluorescence ratio stood at 1.02. In the case of GTTATGCGTC, the switch fluorescence ratio was found to be 0.923. For CCAGTTAGAC the value was 1.33.

Values taken from the supplement of paper PMC10126150.
